# Experimental data taken from article PMC12136788.
# The other results are listed elsewhere or left out.
# T1: UNK ZnF1-6 (called full-length) (human, UniProt Q9C0B0 30-357)
# T1 sequence: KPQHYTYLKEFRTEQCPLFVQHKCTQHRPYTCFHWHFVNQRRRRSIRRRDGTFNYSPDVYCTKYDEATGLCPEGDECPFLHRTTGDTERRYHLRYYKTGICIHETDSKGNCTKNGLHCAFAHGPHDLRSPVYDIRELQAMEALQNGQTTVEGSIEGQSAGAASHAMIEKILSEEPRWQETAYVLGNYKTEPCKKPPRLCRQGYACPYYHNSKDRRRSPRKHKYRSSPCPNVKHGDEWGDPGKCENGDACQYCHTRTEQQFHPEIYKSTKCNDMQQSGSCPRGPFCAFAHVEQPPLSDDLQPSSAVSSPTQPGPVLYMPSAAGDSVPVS
# B1: ENSG00000198589:be:win_3851|CDS|ENSG00000198589|bound_else_gene|NA|bound_elsewhere_windowed (ssRNA)
# RNA: GGGAGUUCUACAGUCCGACGAUCGGCAAGGAAUAGCACCAGAUGCAGUUAAUGGACAAAGGAGGGAUUCCAGAUCUACUGUGUUUCGUAUUCCUGAGUUCAACUGGUCUCAGAUGCAUCAACGUUUGCUCACUGAUCUAUUAUCAACAGAGGAUUGAGCAUCA
# B2: chr3:31579932:31580050:+|CDS|ENSG00000163527|unk|total|mutant (ssRNA)
# RNA: GGGAGUUCUACAGUCCGACGAUCUACAUCUAUAUCUACUUUCCUGCUUACAAGAGAACUUUGGAACCAAGGAGCAGGACUUUCCGCUGCUUGUUUUAUUGCUAUUGUACCAGGCUACAUAUCUCGGUCAGCCGCUGGAUCCUUCAACAGAGGAUUGAGCAUCA
# B3: chrX:40074726:40074839:-|CDS|ENSG00000183337|unk|FALSE|unique (ssRNA)
# RNA: GGGAGUUCUACAGUCCGACGAUCGCGCUGGGCUUGGACAGGCCUGCCAGCGACAAACAGAGCCCUCUCAACAUCAAUGGUGCUAGUUAUCUGCGGCUGCCCUGGGUCAAUCCUUACAUGGAGGGUGCCACGCCAGCCAUCUACCAACAGAGGAUUGAGCAUCA
# B4: ENSG00000034677:stop:overlap|stop_codon|ENSG00000034677|stop_codon|NA|stop_codon (ssRNA)
# RNA: GGGAGUUCUACAGUCCGACGAUCCAAAUAACAACCACUCACAUCAGACAAUGGAAUUAAAAGUUGCAAUUCAGACUGAAAUUUAGGCCCAUAAAUGCUGCAGAAUAAUUACCACUGUACAACCGUGUUUGGAGCUGGUUGAACCAACAGAGGAUUGAGCAUCA
# B5: chr8:23843870:23844003:-|3pUTR|ENSG00000159167|msi1|total|mutant (ssRNA)
# RNA: GGGAGUUCUACAGUCCGACGAUCAAUUCCAGAGGACUCUGCUUAAACAAAGCAGUAUAUAAUAACUUUAUUGCAUACCGAUUCCGUUUUGUAACUCCGCUUUAUUUUUCUUUUCCUGGGAAUGGAAUAACUAUCUCACUUCCACAACAGAGGAUUGAGCAUCA
# B6: chr1:9850293:9850394:-|3pUTR|ENSG00000178585|unk|total|mutant (ssRNA)
# RNA: GGGAGUUCUACAGUCCGACGAUCCGGUAUCUGGCUUCCCUGGAAGCUCUCCGAGCUCUGGUGCUUCCGUCCGGUCAUUUUUUCCGAAAUGUGAAGAGGUCUGAUUGGCUGCUUAAACUGGAAAGGAUCUGUGAUUGGCUGGUUCAACAGAGGAUUGAGCAUCA
# B7: chr8:41263332:41263433:-|3pUTR|ENSG00000104332|msi1|total|mutant (ssRNA)
# RNA: GGGAGUUCUACAGUCCGACGAUCCAGCAUGCCCGCCCCGUUACCUACCGGAGAGUUAUCCUGAUAAAUUAACCUCUCACAGUCCGUGAUCCUGUCCUUUUAACACCUUUUUUGUGGGGUUCUCUCUGACCUUUCAUCGUAAAGCAACAGAGGAUUGAGCAUCA
# B8: ENSG00000198589:be:win_851|CDS|ENSG00000198589|bound_else_gene|NA|bound_elsewhere_windowed (ssRNA)
# RNA: GGGAGUUCUACAGUCCGACGAUCAAGGCUUUCAACACUGUGUGAAAUUUGAUUUCAAGCCACAAAAGUGGUAUAUGGUUACCAUAGUACACAUCUAUAACCGAUGGAAGAAUAGUGAACUUCGAUGUUAUGUGAAUGGUGAGCCAACAGAGGAUUGAGCAUCA
# B9: chr6:150018333:150018855:-|three_prime_utr|ENSG00000155918|control|control|control (ssRNA)
# RNA: GGGAGUUCUACAGUCCGACGAUCACCACCUACGGUGUAUGUCCAGCAGCCUCCAGCAGAUGAUGAUGACACCAUGGACCCAAUAGCUCAUUCACUGCCUUGAUUCCUUUUGCCAACAAUUUAACCAGUGAUUAUUCCUAACAUCAACAGAGGAUUGAGCAUCA
# B10: chr10:60026297:60029826:-|three_prime_utr|ENSG00000151150|control|control|control (ssRNA)
# RNA: GGGAGUUCUACAGUCCGACGAUCAAUGGCAUGAUUUUUUUUAUGCAAAAAGAAAAGAAAAGAAAACCACCCACAUUUUAAUUUAGCAUGAGCCAAUUUACAGAGCAUGGAAAUCACUUUCAUUUCCGGAUUGGCGCGUGUGCACAACAGAGGAUUGAGCAUCA
# B11: chr13:106491723:106491923:-|3pUTR|ENSG00000125266|msi1|FALSE|unique (ssRNA)
# RNA: GGGAGUUCUACAGUCCGACGAUCCAGACUCAGCUGCUAUACUUAUCACAUUUUAUUAAACACAGGGAAAGCAUUUAGGAGAAUAGCAGAGAGCCAAAUCUGACCUAAAAGUUGAAAAGCCAAAGGUCAAACAGGCUGUAAUUCCAACAGAGGAUUGAGCAUCA
# B12: ENSG00000105894:stop:overlap|stop_codon|ENSG00000105894|stop_codon|NA|stop_codon (ssRNA)
# RNA: GGGAGUUCUACAGUCCGACGAUCCCAAACCUCAAGAGAAGGGAAAAUGGAGACACAGGAGUGGGGAGAGUUUGAGAAGAUGGUAGAGAGGAGUGUUUGGGUGAAGGGAGAUGGAUUCGUCUACUGAUGCAACUGCAGAAUCUACAACAGAGGAUUGAGCAUCA
# B13: ENSG00000163346:stop:overlap|stop_codon|ENSG00000163346|stop_codon|NA|stop_codon (ssRNA)
# RNA: GGGAGUUCUACAGUCCGACGAUCAGAGCCUGCCUUCAACCCCCAAAGCAGUCACCUCACUGCCCUGUCCCUGUCCUUUCCCCUAGCUUGGAUCAGGGAGGAGGGCCGCUGCUCCAGCAGUGACGAUGACACCGACGUGGACAUCAACAGAGGAUUGAGCAUCA
# B14: chr17:35577220:35577322:-|CDS|ENSG00000108733|unk|total|mutant (ssRNA)
# RNA: GGGAGUUCUACAGUCCGACGAUCUCUAUUAUGUUCCUGGUUCUUCUUCCCUAUCUGAAAGUGAAGCUGGAGAAGCUGGUUUCCCGCCUGAGAGAAGAGGAUGAAUAUUCUAUUCAUCCCCCUUCUUCCCGCUGGAAACGAUUUCAACAGAGGAUUGAGCAUCA
# Target: T1, UNK ZnF1-6 (called full-length)
# Assay: nsRBNS (natural sequence RNA bind-n-seq); RBNS binding buffer (assumed for nsRBNS): 25 mM Tris pH 7.5, 150 mM KCl, 3 mM MgCl2, 0.01% Triton X-100, 500 ug/ml BSA, 20 U/ml SUPERase-In, 4 C; UNK is unkempt and MSI1 is Musashi-1; names of the RNAs are library labels; protein concentration not given here; high values mean tight binding
row,Binder,binding signal [enrichment R]
1,B1,0.479
2,B2,0.508
3,B3,0.855
4,B4,1.15
5,B5,0.614
6,B6,0.643
7,B7,0.75
8,B8,0.342
9,B9,0.612
10,B10,0.342
11,B11,1.53
12,B12,0.894
13,B13,0.735
14,B14,0.429
